Data: patent US20260176364A1 (INSTITUT PASTEUR, published 2026)

B1: α7E3-Fc (Fc fusion)
chain: MGSSHHHHHHAAAAEVQLQASGGGLVQAGDSLRLSCAASGGTFSHYAVGWFRQAPGKEREFVAAISWSGRSTSFANSVKGRFTISRDSAKNTAYLQMNNLKPEDTAVYCCAPARFGTGSAARDEYDDCGQGTQVTVSSAAARS[human IgG1 Fc not shown]
notes: VHH fused at its C-terminus to a human IgG1 Fc, a dimer with two VHH domains, made in EXPI293F cells; also called E3 fused to the heavy chain fragment of a human IgG; VHH-Fc (E3)
B2: α7C4-Fc (Fc fusion)
chain: MGSSHHHHHHAAAAQVQLVESGGGLVQAGGSLKLSCAASGFTFAHYAMVWFRQAPGKEREFVAGISWSGASTYYASSVKGRFTISRDNAKNTVYLQMNSLKPEDTAVYYVAAARFGVGVDDDYSYWGQGTQVTVSSAAARS[human IgG1 Fc not shown]
notes: VHH fused at its C-terminus to a human IgG1 Fc, a dimer with two VHH domains, made in EXPI293F cells; also called C4 fused to the heavy chain fragment of a human IgG; VHH-Fc (C4)

Legend:
human α4GFPβ2-nAChR = target: T1, human α4GFPβ2-nAChR (human); assay: immunofluorescence, permeabilized HEK293 cells, anti-human IgG-Alexa647
T1 construct: whole, on cells; Heteromeric receptor on transfected, permeabilized HEK293 cells; also called α4β2-nAChR

human α3β4StrepII-nAChR = target: T2, human α3β4StrepII-nAChR (human); assay: as above
T2 construct: whole, on cells; Heteromeric receptor on transfected, permeabilized HEK293 cells; also called α3β4-nAChR; hα3 hβ4StrepII; not shown: C-terminal StrepTagII

Binder	binding result (human α4GFPβ2-nAChR)	binding result (human α3β4StrepII-nAChR)
B1	no binding (tested: 5 µg/ml)	no binding (tested: 5 µg/ml)
B2	no binding (tested: 5 µg/ml)	no binding (tested: 5 µg/ml)
